Measured values published in PubChem BioAssay AID1508623 (National Center for Advancing Translational Sciences (NCATS), 2021).
Screen size: about 48,000 compounds; about 450 (0.94%) were called active. About 19% were inconclusive and are not listed. Calls follow the shape of the dose curve; as a rule, active = well fitted inhibition curve with a large enough effect; inconclusive = small, poorly fitted or top-dose-only effect; inactive = no such curve, though single readings can be large or run the other way. This is one part of the list.

test: Primary qHTS for Identification of Small Molecule Inhibitors of Huntingtin Promoter Activity; conditions: HEK293 HTT promoter firefly luciferase reporter (activity 0% = vehicle and -100% = no light), 24 h; series mostly up to 57.5 µM; activity change, negative = inhibition: at the top concentration; also: nearly all actives have a fitted effect of over 50% in size
Outline: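 HEK293 Fluc reporter, 2,500 cells/well, 24 h pre-culture; cpds up to 57.5 uM final, 24 h 37 degrees C; Dual-Glo, 10 min RT; normalized vehicle = 0%, zero RLU = -100%.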

Activity change, negative = inhibition, inactive:
Cc1ccc(OCC(=O)Nc2nonc2-c2ccc(Br)cc2)cc1C -17.7%, CCOC(=O)C(CC)N1CCN(Cc2ccc(F)cc2)C(=O)C1=O (stereo not given) -8.75%, CCCc1nc(C(C)(C)O)c(C(=O)O)n1Cc1ccc(-c2ccccc2-c2nn[nH]n2)cc1 -8.74%, CCn1nc(C)c2c(-c3ccccc3)cc(=O)n(C(C)C(=O)Nc3cc(C)ccc3C)c21 (stereo not given) -22.2%, O=C(Nc1nc2c(F)cccc2s1)c1ccc(S(=O)(=O)N2CCCc3ccccc32)cc1 0.792%, COc1ccc(N2CCN(C(=O)C(C)n3nc(C)c4sc5ccccc5c4c3=O)CC2)cc1 (stereo not given) -0.0516%, CCOC(=O)c1c(NC(=O)C2c3ccccc3Oc3ccccc32)sc2c1CCC(CC)C2 (stereo not given) -9.12%, CCc1ccc(NC(=O)Cn2c(=O)n(CCCC(=O)NCc3ccc4c(c3)OCO4)c(=O)c3ccccc32)cc1 -12.2%, CCS(=O)(=O)NCC(c1ccco1)N1CCN(c2ccc(F)cc2)CC1 (stereo not given) -13.1%, CC(=O)C1=C(c2cccc([N+](=O)[O-])c2)N(C(C)=O)n2c(nnc2-c2ccc(C)cc2)S1 -11.8%, CCOC(=O)c1c(S(=O)(=O)N2CCCC(C(=O)N3CCN(c4cc(C)ccc4C)CC3)C2)c(C)n(C)c1C (stereo not given) -12.6%, CCN(CC)C(=O)c1ccc(O)c(OC)c1 -1.53%, Cc1nn2c(C)c(C(=O)N3CCN(c4ccc(Cl)cc4)CC3)cnc2c1-c1ccc(F)cc1 -11.8%, O=S(=O)(c1ccc(-c2cnc(C3CC3)o2)cc1)N1CCN(c2ccccc2F)CC1 -21.6%, COc1cc2c(cc1OC)n(CC(=O)c1ccc(C)cc1C)c(=O)n1nc(CCn3nc(C)cc3C)nc21 -8.25%, COc1ccc(NC(=O)c2cc(-c3ccccc3F)no2)cc1 1.18%, Cc1cccc(Nc2sc(C(=O)c3ccc(Cl)cc3)c(N)c2C(N)=O)c1 -16.7%, COc1cccc(CNC(=O)Cn2nc(C)c3sc4ccccc4c3c2=O)c1OC -6.94%, Cc1cccc(C)c1OCC(=O)N(Cc1ccco1)Cc1ccco1 -12.7%, C=Cc1ccc(Cn2c(C)c(CNCCc3ccc(OCC)cc3)c(C(=O)O)c2C)cc1 0%, CCn1cc(C(=O)N2CCN(c3cccc(Cl)c3)CC2)c(=O)c2cc(S(=O)(=O)N3CCC(C)CC3)ccc21 -15.4%, Cc1ccc2c(=O)cc(CSc3ncn[nH]3)[nH]c2c1C -2.37%, CCOC(=O)c1c(C)[nH]c(C)c1S(=O)(=O)N1CCC(C(=O)N2CCN(c3ccc(F)cc3)CC2)CC1 -21.7%, Cc1ccc2nc(NC(=O)c3ccc(S(=O)(=O)N4CCC(C)CC4)cc3)sc2c1 -0.966%, Cc1ccccc1CN1C(=O)c2ccccc2Sc2ccc(C(=O)NCCc3ccccc3)cc21 -29.4%
